Experimental findings from patent US7595299B2, “Peptides as NS3-serine protease inhibitors of hepatitis C virus” (priority 2000, dated 2009) are described below.

This assay has as its target Recombinant heterodimeric HCV NS3/NS4A protease (strain 1a) (Hepatitis C virus genotype 1a, UniProt P27958). Kind of assay: biochemical. The conditions noted are these: HCV protease continuous assay, Table 1; read-out: Ki* Range. As for the experimental part: Spectrophotometric Assay: Spectrophotometric assay for the HCV serine protease was performed on the inventive compounds by following the procedure described by R. Zhang et al, Analytical Biochemistry, 270 (1999) 268-275, the disclosure of which is incorporated herein by reference. The assay based on the proteolysis of chromogenic ester substrates is suitable for the continuous monitoring of HCV NS3 protease activity. The substrates were derived from the P side of the NS5A-NS5B junction sequence (Ac-DTEDVVX(Nva), where X=A or P) whose C-terminal carboxyl groups were esterified with one of four different chromophoric alcohols (3- or 4-nitrophenol, 7-hydroxy-4-methyl-coumarin, or 4-phenylazophenol). […] Materials and Methods:
Materials: Chemical reagents for assay related buffers were obtained from Sigma Chemical Company (St. Louis, Mo.). Reagents for peptide synthesis were from Aldrich Chemicals, Novabiochem (San Diego, Calif.), Applied Biosystems (Foster City, Calif.) and Perseptive Biosystems (Framingham, Mass.). Peptides were synthesized manually or on an automated ABI model 431A synthesizer (from Applied Biosystems). UV/VIS Spectrometer model LAMBDA 12 was from Perkin Elmer (Norwalk, Conn.) and 96-well UV plates were obtained from Corning (Corning, N.Y.). The prewarming block was from USA Scientific (Ocala, Fla.) and the 96-well plate vortexer was from Labline Instruments (Melrose Park, Ill.). A Spectramax Plus microtiter plate reader with monochrometer was obtained from Molecular Devices (Sunnyvale, Calif.).
Protein concentrations were determined by the Biorad dye method using recombinant HCV protease standards previously quantified by amino acid analysis. Prior to assay initiation, the enzyme storage buffer (50 mM sodium phosphate pH 8.0, 300 mM NaCl, 10% glycerol, 0.05% lauryl maltoside and 10 mM DTT) was exchanged for the assay buffer (25 mM MOPS pH 6.5, 300 mM NaCl, 10% glycerol, 0.05% lauryl maltoside, 5 μM EDTA and 5 μM DTT) utilizing a Biorad Bio-Spin P-6 prepacked column.
Substrate Synthesis and Purification: The synthesis of the substrates was done as reported by R. Zhang et al, (ibid.) and was initiated by anchoring Fmoc-Nva-OH to 2-chlorotrityl chloride resin using a standard protocol (K. Barlos et al, Int. J. Pept. Protein Res., 37 (1991), 513-520). The peptides were subsequently assembled, using Fmoc chemistry, either manually or on an automatic ABI model 431 peptide synthesizer. […] The combined filtrate and DCM wash was evaporated azeotropically (or repeatedly extracted by aqueous Na2CO3 solution) to remove the acid used in cleavage. The DCM phase was dried over Na2SO4 and evaporated.
The ester substrates were assembled using standard acid-alcohol coupling procedures (K. Holmber et al, Acta Chem. Scand., B33 (1979) 410-412). Peptide fragments were dissolved in anhydrous pyridine (30-60 mg/ml) to which 10 molar equivalents of chromophore and a catalytic amount (0.1 eq.) of para-toluenesulfonic acid (pTSA) were added. Dicyclohexylcarbodiimide (DCC, 3 eq.) was added to initiate the coupling reactions. […] Pyridine solvent was evaporated under vacuum and further removed by azeotropic evaporation with toluene. The peptide ester was deprotected with 95% TFA in DCM for two hours and extracted three times with anhydrous ethyl ether to remove excess chromophore. The deprotected substrate was purified by reversed phase HPLC on a C3 or C8 column with a 30% to 60% acetonitrile gradient (using six column volumes).

Structures are written as SMILES. pKi: −log10 of the molar value. Starred links: 1 amine or outer side, 2 acyl side, 3 side chain; linkers in the order of their positions; H or OH if unused. Non-standard residues stand in square brackets, D forms with d. Residues, ends and D or L forms follow the SMILES beside them. ξ: configuration not given here. *: point of attachment. Benzoyl(2-COOH-4,5-Cl2) = O=C(O)c1cc(Cl)c(Cl)cc1C(=O)*; Gly(piperidin-4-yl) = N[C@H](C(=O)O)C1CCNCC1; X22 = O=C(C(N[*:1])c1ccc(Oc2ccccc2)cc1)[*:2]; Bip = N[C@@H](Cc1ccc(-c2ccccc2)cc1)C(=O)O; Phe(4-Cl) = N[C@@H](Cc1ccc(Cl)cc1)C(=O)O; Phe(4-F) = N[C@@H](Cc1ccc(F)cc1)C(=O)O; dPhg(2-F) = N[C@@H](C(=O)O)c1ccccc1F; Isobutyloxycarbonyl = CC(C)COC(=O)*; X4 = CCCC(N[*:1])C(=O)C(=O)[*:2]; X36 = O=C(O)C1C2CCC(C2)C1C(=O)*; X6 = O=C(O)C(CCC(=O)*)c1ccccc1; AllylGly = C=CC[C@H](N)C(=O)O; X23 = C/C=C/CC(CC(=O)*)C(=O)O; ξNMePhg = CNC(C(=O)O)c1ccccc1; Chg = N[C@H](C(=O)O)C1CCCCC1; Phg = N[C@H](C(=O)O)c1ccccc1; X19 = CCCCC(CC(=O)*)C(=O)O; Boc = CC(C)(C)OC(=O)*; OBn = c1ccc(CO*)cc1; OtBu = CC(C)(C)O*

Usually pKi stands for the Ki on a negative log10 scale, so that one unit is a factor of ten.

Regarding `CCCC(NC(=O)[C@H](CC(C)C)NC(=O)[C@@H](NC(=O)CCC(C(=O)O)c1ccccc1)C1CCCCC1)C(=O)C(=O)NCC(=O)N[C@H](C(=O)OCc1ccccc1)c1ccccc1` (stereo partly shown) [Example 17] (X6-[Chg]L[X4]G[Phg]-OBn), the pKi is 6.00 to 7.00.
With `CCCC(NC(=O)[C@H](CC(C)C)NC(=O)[C@@H](NC(=O)CCC(C(=O)O)c1ccccc1)C1CCCCC1)C(=O)C(=O)NCC(=O)N[C@H](C(=O)O)c1ccccc1` (stereo partly shown) [Example 18] (X6-[Chg]L[X4]G[Phg]-OH), the pKi is above 7.00.
In the case of `CCCC(NC(=O)[C@H](CC(C)C)NC(=O)[C@@H](NC(=O)OC(C)(C)C)C1CCCCC1)C(=O)C(=O)NCC(=O)NC(C(=O)OC)(c1ccccc1)c1ccccc1` (stereo partly shown) [Example 20] it was below 6.00; in that of `CCCC(NC(=O)[C@H](Cc1ccc(F)cc1)NC(=O)[C@@H](NC(=O)OC(C)(C)C)C1CCCCC1)C(=O)C(=O)NCC(=O)N[C@H](C(=O)O)c1ccccc1` (stereo partly shown) [Example 21] (Boc-[Chg][Phe(4-F)][X4]G[Phg]-OH), 6.00 to 7.00; in that of `CCCC(NC(=O)[C@H](Cc1ccc(Cl)cc1)NC(=O)[C@@H](NC(=O)OCC(C)C)C1CCCCC1)C(=O)C(=O)NCC(=O)N[C@H](C(=O)O)c1ccccc1` (stereo partly shown) [Example 22] (Isobutyloxycarbonyl-[Chg][Phe(4-Cl)][X4]G[Phg]-OH), below 6.00.
To `CCCC(NC(=O)[C@H](Cc1ccc(F)cc1)NC(=O)[C@@H](NC(=O)OCC(C)C)C1CCCCC1)C(=O)C(=O)NCC(=O)N[C@H](C(=O)O)c1ccccc1` (stereo partly shown) [Example 23] (Isobutyloxycarbonyl-[Chg][Phe(4-F)][X4]G[Phg]-OH) belongs below 6.00.
In the case of `C/C=C/CC(CC(=O)N[C@H](C(=O)N[C@@H](CC(C)C)C(=O)NC(CCC)C(=O)C(=O)NCC(=O)N[C@H](C(=O)OCc1ccccc1)c1ccccc1)C1CCCCC1)C(=O)O` (stereo partly shown) [Example 24] (X23-[Chg]L[X4]G[Phg]-OBn), the pKi was 6.00 to 7.00.
In the case of `CCCCC(CC(=O)N[C@H](C(=O)N[C@@H](CC(C)C)C(=O)NC(CCC)C(=O)C(=O)NCC(=O)N[C@H](C(=O)O)c1ccccc1)C1CCCCC1)C(=O)O` (stereo partly shown) [Example 25] (X19-[Chg]L[X4]G[Phg]-OH) it was above 7.00.
`CCCC(NC(=O)[C@H](CC(C)C)NC(=O)[C@@H](NC(=O)OCC(C)C)C1CCCCC1)C(=O)C(=O)NCC(=O)NC(C(=O)NC1CCCCC1)c1ccc(Oc2ccccc2)cc1` (stereo partly shown) [Example 26]: the pKi is below 6.00.
To `CCCC(NC(=O)[C@H](CC(C)C)NC(=O)[C@@H](NC(=O)OCC(C)C)C1CCCCC1)C(=O)C(=O)NCC(=O)NC(C(=O)NC1CCCCC1)c1ccc(OCC)cc1` (stereo partly shown) [Example 27] belongs below 6.00; to `CCCC(NC(=O)[C@H](CC(C)C)NC(=O)[C@@H](NC(C)=O)C1CCCCC1)C(=O)C(=O)NCC(=O)NC(C(=O)NCC(=O)OC)c1ccc(Oc2ccccc2)cc1` (stereo partly shown) [Example 28] (Ac-[Chg]L[X4]G[X22]G-OMe), 6.00 to 7.00; to `CCCC(NC(=O)[C@H](CC(C)C)NC(=O)[C@@H](NC(=O)OC(C)(C)C)C1CCCCC1)C(=O)C(=O)NCC(=O)N(C)C(C(=O)OC)c1ccccc1` (stereo partly shown) [Example 29] (Boc-[Chg]L[X4]G[ξNMePhg]-OMe), below 6.00.
With `CCCC(NC(=O)[C@H](CC(C)C)NC(=O)[C@@H](NC(=O)C1C2CCC(C2)C1C(=O)O)C1CCCCC1)C(=O)C(=O)NCC(=O)N[C@H](C(=O)O)c1ccccc1` (stereo partly shown) [Example 30] (X36-[Chg]L[X4]G[Phg]-OH), the pKi was 6.00 to 7.00.
In the case of `CC(C)COC(=O)N[C@H](C(=O)N[C@@H](CC(C)C)C(=O)NC(CC(C)C)[13C](=O)C(=O)NCC(=O)N[C@H](C(=O)O)c1ccccc1)C1CCCCC1` (stereo partly shown) [Example 32] it was 6.00 to 7.00; in that of `CC(C)COC(=O)N[C@H](C(=O)N[C@@H](CC(C)C)C(=O)NC(CC(C)C)[13C](=O)C(=O)NCC(=O)N[C@H](C(=O)OC(C)(C)C)c1ccccc1)C1CCCCC1` (stereo partly shown) [Example 33], below 6.00; in that of `C=CC[C@H](NC(=O)[C@@H](NC(=O)OCC(C)C)C1CCCCC1)C(=O)NC(CCC)C(=O)C(=O)NCC(=O)N[C@H](C(=O)O)c1ccccc1` (stereo partly shown) [Example 34] (Isobutyloxycarbonyl-[Chg][AllylGly][X4]G[Phg]-OH), 6.00 to 7.00.
For the molecule `C=CC[C@H](NC(=O)[C@@H](NC(=O)OCC(C)C)C1CCCCC1)C(=O)NC(CCC)C(=O)C(=O)NCC(=O)N[C@H](C(=O)OC(C)(C)C)c1ccccc1` (stereo partly shown) [Example 35] (Isobutyloxycarbonyl-[Chg][AllylGly][X4]G[Phg]-OtBu), the pKi was below 6.00.
In the case of `CC(C)COC(=O)N[C@H](C(=O)N[C@@H](CC(C)C)C(=O)NC(CSC(c1ccccc1)(c1ccccc1)c1ccccc1)C(=O)C(=O)NCC(=O)N[C@H](C(=O)OC(C)(C)C)c1ccccc1)C1CCCCC1` (stereo partly shown) [Example 36] it was below 6.00; in that of `CCCC(NC(=O)[C@H](Cc1ccc(-c2ccccc2)cc1)NC(=O)[C@@H](NC(=O)OCC(C)C)C1CCCCC1)C(=O)C(=O)NCC(=O)N[C@H](C(=O)O)c1ccccc1` (stereo partly shown) [Example 37] (Isobutyloxycarbonyl-[Chg][Bip][X4]G[Phg]-OH), below 6.00.
To `CCCC(NC(=O)[C@H](Cc1c[nH]cn1)NC(=O)[C@@H](NC(=O)OC(C)(C)C)C1CCCCC1)C(=O)C(=O)NCC(=O)N[C@H](C(=O)O)c1ccccc1` (stereo partly shown) [Example 38] (Boc-[Chg]H[X4]G[Phg]-OH) belongs 6.00 to 7.00; to `CCCC(NC(=O)C(CC1SCCC[S+]1[O-])NC(=O)C(NC(=O)OCC(C)C)C1CCCCC1)C(=O)C(=O)NCC(=O)NC(C(=O)OC(C)(C)C)c1ccccc1` (stereo not shown) [Example 39], below 6.00; to `CCCC(NC(=O)C(CC1SCCS1)NC(=O)C(NC(=O)OCC(C)C)C1CCCCC1)C(=O)C(=O)NCC(=O)NC(C(=O)OC(C)(C)C)c1ccccc1` (stereo not shown) [Example 40], below 6.00.
As to `CCCC(NC(=O)C(CC1SCCCS1)NC(=O)C(NC(=O)OCC(C)C)C1CCCCC1)C(=O)C(=O)NCC(=O)NC(C(=O)O)c1ccccc1` (stereo not shown) [Example 41], the pKi was 6.00 to 7.00.
Turning to `CCCC(NC(=O)C(CC1SCCCS1)NC(=O)C(NC(=O)OCC(C)C)C1CCCCC1)C(=O)C(=O)NCC(=O)NC(C(=O)OC(C)(C)C)c1ccccc1` (stereo not shown) [Example 42], the pKi was below 6.00.
To `CCCC(NC(=O)C(CC1SCCS1)NC(=O)C(NC(=O)OCC(C)C)C1CCCCC1)C(=O)C(=O)NCC(=O)NC(C(=O)O)c1ccccc1` (stereo not shown) [Example 43] belongs above 7.00; to `CCCC(NC(=O)[C@H](CC(C)C)NC(=O)[C@@H](NC(=O)OCC(C)C)C1CCN(C(=O)OCC[Si](C)(C)C)CC1)C(=O)C(=O)NCC(=O)N[C@H](C(=O)O)c1ccccc1` (stereo partly shown) [Example 44], below 6.00; to `CCCC(NC(=O)[C@H](CC(C)C)NC(=O)[C@@H](NC(=O)OCC(C)C)C1CCNCC1)C(=O)C(=O)NCC(=O)N[C@H](C(=O)O)c1ccccc1` (stereo partly shown) [Example 45] (Isobutyloxycarbonyl-[Gly(piperidin-4-yl)]L[X4]G[Phg]-OH), below 6.00.
For `CCCC(NC(=O)[C@H](CC(C)C)NC(=O)[C@@H](NC(=O)c1cc(Cl)c(Cl)cc1C(=O)O)C1CCNCC1)C(=O)C(=O)NCC(=O)N[C@H](C(=O)O)c1ccccc1` (stereo partly shown) [Example 47] ({Benzoyl(2-COOH-4,5-Cl2)}-[Gly(piperidin-4-yl)]L[X4]G[Phg]-OH), the pKi was below 6.00.
For `CCCC(NC(=O)[C@H](CC(C)C)NC(=O)[C@@H](NC(=O)OC(C)(C)C)C1CCCCC1)C(=O)C(=O)NCC(=O)N[C@@H](C(=O)OC)c1ccccc1F` (stereo partly shown) [Example 48] (Boc-[Chg]L[X4]G[dPhg(2-F)]-OMe), the pKi is 6.00 to 7.00.
In the case of `CCCC(NC(=O)[C@H](CC(C)C)NC(=O)[C@@H](NC(=O)OC(C)(C)C)C1CCCCC1)C(=O)C(=O)NCC(=O)N[C@@H](C(=O)O)c1ccccc1F` (stereo partly shown) [Example 49] (Boc-[Chg]L[X4]G[dPhg(2-F)]-OH) it was above 7.00; in that of `CCCC(NC(=O)[C@H](CC(C)C)NC(=O)[C@@H](NC(=O)OCC(C)C)C1CCN(C(=O)OCC2c3ccccc3-c3ccccc32)CC1)C(=O)C(=O)NCC(=O)N[C@H](C(=O)O)c1ccccc1` (stereo partly shown) [Example 50], below 6.00.
